Results published in PubChem BioAssay (NCATS).
“And” between values parts separate entries of the source, which are not always exact repeats. Equal values may be shown once. Inconclusive means that the source gave no clear call. Such entries were picked first, then a sample of the others. Where the call is inconclusive, the potency comes from a doubtful curve fit. The source made the active and inactive calls. Calls follow the shape of the dose curve; as a rule, active = well fitted cell-killing curve with a large enough effect; inconclusive = small, poorly fitted or top-dose-only effect; inactive = no such curve, though single readings can be large or run the other way.

test: qHTS of pediatric cancer cell lines to identify multiple opportunities for drug repurposing: Primary screen for SK-N-SH cells (AID 1347098); details: SK-N-SH viability, CellTiter-Glo luminescence, 48 h; activity change, negative = cytotoxic: at 57 µM (top of the series); also: nearly all actives have a fitted effect of over 65% in size;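 as to activity change, negative = cytotoxic: DMSO served as neutral control and bortezomib at 2.3 µM as positive control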
How it was run: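 Cells (500-1,000/well) rested 5 h, then received compounds for 48 h; metabolically active cells were measured by CellTiter-Glo luminescence. Final concentrations spanned up to 46 µM (MIPE, 11-point) or 0.59 nM-46 µM (NPC, 8-point) in primary screens, 11-point in follow-ups.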
% is scaled to controls: 0 for no effect and ±100 for the full control effect; potency is read from the fitted curve at half-maximal effect; tags tell the direction and shape of the fitted curve.

| Compound | Potency | activity change, negative = cytotoxic |
| --- | --- | --- |
| N[C@@H](CC(=O)N1CCn2c(nnc2C(F)(F)F)C1)Cc1cc(F)c(F)cc1F | inconclusive: 9.61 µM [cytotoxic, partial curve, poor fit] |  |
| COc1ccccc1N1CCN(CC(O)COc2cccc3ccccc23)CC1 (centres undefined) | inconclusive: 19.2 µM [cytotoxic, partial curve] and inconclusive: 24.4 µM [cytotoxic, single point] |  |
| Clc1cc(Cl)cc(CNc2ncncc2-c2ccc3c(c2)OCO3)c1 | inconclusive: 27.1 µM [cytotoxic, single point] |  |
| COc1ccc(-c2oc3c(CC=C(C)C)c(OC4O[C@H](CO)[C@@H](O)[C@H](O)[C@@H]4O)cc(O)c3c(=O)c2OC2O[C@@H](C)[C@H](O)[C@@H](O)[C@@H]2O)cc1 (some centres undefined) | inconclusive: 42.9 µM [cytotoxic, single point] |  |
| COc1ccc2nc3cc(Cl)ccc3c(Nc3cc(CN4CCCC4)c(O)c(CN4CCCC4)c3)c2n1 | inconclusive: 24.1 µM [cytotoxic, partial curve] |  |
| Nc1ccn([C@@H]2O[C@H](CO)[C@@H](O)[C@H]2O)c(=O)n1 |  | inactive: -18.1% |
| O=C(O)CCC1CCC(c2cc(F)ccc2F)(S(=O)(=O)c2ccc(Cl)cc2)CC1 (centres undefined) |  | inactive: -14% |
| COc1ccccc1OCCNCC(O)COc1cccc2[nH]c3ccccc3c12 (centres undefined) | inconclusive: 38.6 µM [cytotoxic, single point] |  |
| Nc1ncnc2nc(-c3ccc(N4CCOCC4)nc3)cc(-c3cccc(Br)c3)c12 | inconclusive: 38.3 µM [cytotoxic, single point] |  |
| COc1cc(F)c(F)c(Nc2ccc(I)cc2F)c1NS(=O)(=O)C1(C[C@H](O)CO)CC1 | inconclusive: 27.1 µM [cytotoxic, partial curve] |  |
| C[C@]1(c2nc3c(C(N)=O)cccc3[nH]2)CCCN1 | inconclusive: 1.92 µM [cytotoxic, full curve] |  |
| COc1cc2nc(N3CCN(C(=O)c4ccco4)CC3)nc(N)c2cc1OC | inconclusive: 18.9 µM [cytotoxic, single point] |  |
| OC(c1cc(C(F)(F)F)nc2c(C(F)(F)F)cccc12)C1CCCCN1 (centres undefined) | active: 34.1 µM |  |
| CC(C)C[C@H](CC(=O)O)C(=O)N[C@@H](Cc1c[nH]c2ccccc12)C(=O)N[C@@H](C)c1ccccc1 | inconclusive: 1.52 µM [cytotoxic, full curve] |  |
